Source: PubChem BioAssay AID1347073 (National Center for Advancing Translational Sciences (NCATS), 2019)
Among all 45,000 compounds or so, about 200 (0.44%) were called active. Inconclusive results (about 7%) are left out. The call rests on the fitted dose curve; in most records, active means well fitted activation curve with a large enough effect; inconclusive means small, poorly fitted or top-dose-only effect; inactive means no such curve, though single readings can be large or run the other way. The list shows a part of the results.

experiment: qHTS of TDP-43 Inhibitors: NCGC Sytravon Library Screen; settings: yeast TDP-43 toxicity rescue, BacTiter-Glo growth, 24 h; series mostly up to 46.1 µM; growth rescue (activation): at the top concentration; further: 0% is about no effect; nearly all actives have a fitted effect of over 55% in size
Procedure, shortened: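 TDP-43-expressing yeast, pregrown in raffinose, seeded at OD600 0.02 in galactose medium with compound for 24 hr at 30 deg C. Growth read by BacTiter-Glo luminescence, so rescue of toxicity appears as activation.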

| Compound | growth rescue (activation) |
| --- | --- |
| CC1CCc2c(sc(NC(=O)C3c4ccccc4Oc4ccccc43)c2C(N)=O)C1 (stereo not drawn) | inactive: 8.78% |
| CCc1ccc(OCC(=O)N(Cc2ccc(C)o2)C2CCS(=O)(=O)C2)cc1 (stereo not drawn) | inactive: 4.46% |
| CCc1ccccc1NC(=O)N1CCc2c([nH]c3ccccc23)C1c1ccc(C)cc1 (stereo not drawn) | inactive: -13.2% |
| Fc1ccc2c(c1)C(c1ccncc1)=NNC(c1ccccc1)=N2 | inactive: 7.48% |
| O=C(COc1ccc(Br)cc1CO)N1CCCc2ccccc21 | inactive: 18% |
| COc1ccc(C(=O)/C=C/Nc2ccc(S(N)(=O)=O)cc2)cc1OC | inactive: -29.2% |
| O=C(NNc1cc(N2CCOCC2)nc(N2CCOCC2)n1)c1ccc([N+](=O)[O-])cc1 | inactive: 2.06% |
| COC(=O)c1ccccc1NC(=O)CN(C)Cc1ccccc1 | inactive: 8.58% |
| Cc1cccc(N(CC(O)CN2CCCC2)S(=O)(=O)c2ccccc2)c1 (stereo not drawn) | inactive: 6.22% |
| O=C(O)CCC(=O)Nc1cccc(-c2csc(-c3ccccc3)n2)c1 | inactive: 0.673% |
| O=C(c1cccc(NS(=O)(=O)c2ccc(F)c(F)c2)c1)N1CCN(C(c2ccccc2)c2ccccc2)CC1 | inactive: 5.36% |
| CC1(C)CC(=O)C(C2C3=C(CC(C)(C)CC3=O)Oc3ccc4ccccc4c32)C(=O)C1 (stereo not drawn) | inactive: -5.91% |
| CC(C)Cc1nnc(NC(=O)CCC(=O)N2CCN(S(=O)(=O)c3ccccc3)CC2)s1 | inactive: -25.6% |
| COc1ccc(CCNC(=O)CSCc2c(F)cccc2Cl)cc1OC | inactive: 27.4% |
| O=C(COC(=O)CC1CC2CCC1C2)Nc1c(F)cccc1F (stereo not drawn) | inactive: -36.9% |
| CN(C)S(=O)(=O)c1cccc(NC(=O)CN(CCO)CC(=O)Nc2cccc(S(=O)(=O)N(C)C)c2)c1 | inactive: 11.6% |
| COc1ccc(C(NC(=O)C2CCN(Cc3ccc(Oc4ccccc4)cc3)CC2)c2ccccn2)cc1 (stereo not drawn) | inactive: 10.2% |
| CCN(CC)c1ccc(/C=C2\C(=O)c3ccc(C(=O)O)cc3C2=O)cc1 | inactive: -0.239% |
| CCN(c1ccccc1)S(=O)(=O)c1ccc(Cl)c(C(=O)O)c1 | inactive: 9.87% |
| CC(C)c1ccc(N(C(=O)c2snc(C(N)=O)c2N)C(C(=O)NC2CCCC2)c2ccncc2)cc1 (stereo not drawn) | inactive: 10.3% |
| CC(=O)Nc1ccc(/C=C(\C#N)S(=O)(=O)c2ccc(C)cc2)cc1 | inactive: 5.68% |
| C/C(=N\NC(=O)c1ccc(F)cc1)c1ccc(N2CCOCC2)cc1 | inactive: 12.1% |
| Cc1[nH]c2ccc(-c3n[nH]c(=S)n3-c3ccccc3)cc2c1C | inactive: -7.58% |
| CC(C)c1ccc(NC2=NCC(=O)N2Cc2cccs2)cc1 | inactive: -10.8% |
| COC(=O)c1ccccc1NC(=O)C1CCN(C(=O)c2ccc(OC)cc2)CC1 | inactive: 15.1% |
| CC(=O)Nc1ccc(CN2CCc3c([nH]c4ccccc34)C2c2ccccn2)cc1 (stereo not drawn) | inactive: -2.28% |
| Cc1cccc(NC(=S)NC2CC3CCCC(C2)N3Cc2ccccc2)c1C (stereo not drawn) | inactive: 6.43% |

| Compound | growth rescue (activation) |
| --- | --- |
| O=C(Nc1cccc(O)c1)C1CC(c2ccc(Cl)cc2)=NO1 (stereo not drawn) | inactive: 7.82% |
| COc1ccc(Cl)cc1S(=O)(=O)N1CCC(C(=O)NCC2CCCO2)CC1 (stereo not drawn) | inactive: -1.41% |
| Cc1ccc(P(=O)(CSC(=N)N)c2ccc(C)cc2)cc1 | inactive: 2.81% |
| CN1/C(=C\C(=O)C[n+]2cccc(C(N)=O)c2)C(C)(C)c2ccccc21 | inactive: 9.56% |
| Cc1ccc(NC(=O)c2ccc(NC(=O)c3ccccc3)cc2)cc1C | inactive: 8.48% |
| Cn1c(N)c(C(=O)COC(=O)CCCOc2ccc(Cl)cc2Cl)c(=O)n(C)c1=O | inactive: 15.2% |
| COc1ccc(OC)c(S(=O)(=O)NCC2CCCO2)c1 (stereo not drawn) | inactive: 2.45% |
| O=C(O)c1ccc(NS(=O)(=O)c2ccc(C(=O)Nc3ccccc3)cc2)cc1 | inactive: -2.75% |
| Cc1nc(N2CCN(C)CC2)c2c(C)c(C(=O)Nc3ccc(F)cc3)sc2n1 | inactive: 5.52% |
| NS(=O)(=O)c1cccc(NC(=O)c2ccc(S(=O)(=O)N3CCCCCC3)cc2)c1 | inactive: 32.2% |
| CCOC(=O)CN1C(=O)S/C(=C/c2ccc(OC)c([N+](=O)[O-])c2)C1=O | inactive: -5.88% |
| CCCNC(=O)C1(C)CCN(C(=O)c2cc(F)ccc2C)C1 (stereo not drawn) | inactive: 2.84% |
| Cc1cc(C(F)(F)F)nc(-n2cc(-c3cccc(N)c3)nn2)n1 | inactive: 10.3% |
| CN(c1ccc(C(=O)Nc2ccccn2)cc1)S(=O)(=O)c1ccccc1 | inactive: 12.3% |
| CCOC(=O)C1=C(O)C(=O)N(Cc2ccccc2)CC1 | inactive: 10.1% |
| O=C(OCC(=O)N1CCc2ccccc21)c1ccccc1 | inactive: 22.7% |
| CC(C)CC1=NC(C(F)(F)F)(C(F)(F)F)c2c(n(CC(C)C)c(=O)[nH]c2=O)N1 | inactive: 0.0292% |
| C=CCNC(=O)N1CCCC(C(=O)c2cccc(Cl)c2)C1 (stereo not drawn) | inactive: 9.82% |
| CCN(CC)Cc1c(O)c(Cl)cc2c(C)cc(=O)oc12 | inactive: -0.132% |
| CCn1c(C(=O)NCc2cc(Br)ccc2OC)cc2oc3ccccc3c21 | inactive: 9.96% |
| O=c1[nH]c(/C=C\c2ccc(O)c(O)c2)nc(O)c1[N+](=O)[O-] | inactive: -1.7% |
| COc1ccc(-c2onc(C)c2-c2cnn(-c3ccccc3)c2)c(O)c1C | inactive: -1.63% |
| Cc1ccc(C)c(CN2CCC(CNC(=O)Nc3ccc(F)c(Cl)c3)CC2)c1 | inactive: -16.1% |
| O=C(c1cc[n+]([O-])cc1)N1CCCC(N2CCN(c3cccc(C(F)(F)F)c3)CC2)C1 (stereo not drawn) | inactive: -38.2% |
| Cc1cc(NC(=O)CCC(=O)N(Cc2ccco2)C2(C(=O)NC3CCCCC3)CCCCC2)no1 | inactive: -4.97% |
| COC(=O)c1ccc(NC(=S)Nc2cccc(C)n2)cc1 | inactive: 22.3% |
